Laboratory results: PubChem BioAssay AID1745853 (National Center for Advancing Translational Sciences (NCATS), 2022)
Some of the results follow. Shown are side measurements of this screen, not its main read-out; they come without a call.

What was measured:
Test in all cases: Primary Screen for Target Class Profiling of Small Molecule Inhibitors of Methyltransferases
[1] = biological target: Glycine N-methyltransferase (Homo sapiens) (UniProt Q14749); settings: purified enzyme, MTase-Glo SAH luminescence; measured here: GNMT inhibition; at 40 µM; stronger effect = lower value
How it was run: (§1)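 Each enzyme was reacted with SAM and its substrate, with compounds tested once at 40 uM; SAH formed was read by MTase-Glo luminescence.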

[2] = biological target: Guanidinoacetate N-methyltransferase (Homo sapiens) (UniProt Q14353); settings: purified enzyme, MTase-Glo SAH luminescence; measured here: GAMT inhibition; at 40 µM; stronger effect = lower value
How it was run: as §1

[3] = biological target: Histamine N-methyltransferase (Homo sapiens) (UniProt P50135); settings: purified enzyme, MTase-Glo SAH luminescence; measured here: HNMT inhibition; at 40 µM; stronger effect = lower value
How it was run: as §1

[4] = biological target: Nicotinamide N-methyltransferase (Homo sapiens) (UniProt P40261); settings: purified enzyme, MTase-Glo SAH luminescence; measured here: NNMT inhibition; at 40 µM; stronger effect = lower value
How it was run: as §1

[5] = biological target: Phenylethanolamine N-methyltransferase (Homo sapiens) (UniProt P11086); settings: purified enzyme, MTase-Glo SAH luminescence; measured here: PNMT inhibition; at 40 µM; stronger effect = lower value
How it was run: as §1
% is set by controls: 0 for no effect and ±100 for the full control effect.

| SMILES | activity change, negative = inhibition [1] [%] | activity change, negative = inhibition [2] [%] | activity change, negative = inhibition [3] [%] | activity change, negative = inhibition [4] [%] | activity change, negative = inhibition [5] [%] |
| --- | --- | --- | --- | --- | --- |
| CC(C)Cn1c(=O)c2cc(F)ccc2n2c(SCC(=O)Nc3cccc(Cl)c3)nnc12 | 0.237 | 0 | 6.11 | -10.1 | 2.81 |
| Cn1c(=O)c2ccc(C(=O)NC3CCCCC3)cc2n2c(SCC(=O)Nc3ccc(F)cc3)nnc12 | -2.3 | 1.01 | 1.2 | 2.11 | 4.01 |
| CC1=CCC2C(C)(C)CCCC2(C)C1CC12OC1C(O)C(CO)=CC2O (stereo not given) | 0 | 13.8 | 5.12 | -5.85 | 9.93 |
| N#Cc1cnc(N2CC3CCC(C2)N3CC(F)(F)F)s1 | 0.922 | 0.369 | -53 | -0.746 | -0.587 |
| CC(C)Cn1c(=O)c2ccc(C(=O)NC3CCCC3)cc2n2c(=O)n(CC(=O)N(C)c3ccccc3)nc12 | 1.37 | 0 | 2.42 | -0.383 | 4.03 |
| CCC(C)NC(=O)c1ccc2c(=O)n(C(C)C)c3nn(Cc4ccc(N5CCCC5=O)cc4)c(=O)n3c2c1 (stereo not given) | -2.26 | -7.6 | 6.92 | -17.2 | -4.71 |
| CC[C@H]1CN(C(=O)N2CCOCC2)CC[C@H]1CC(=O)NCCOC | -0.471 | 0.642 | 0.662 | -6.42 | -2.44 |
| CC(C)=CCC1(CO)CCCN(Cc2csc(C)n2)C1 (stereo not given) | -0.383 | 3.55 | 1.32 | -2.09 | -0.009 |
| CC(=O)NC1CCN(C(=O)c2coc(COc3cccc(C(F)(F)F)c3)n2)C1 (stereo not given) | -3.18 | -9.11 | -2.09 | -13.2 | -11.7 |
| CC1(C(=O)NC2CCCCCCC2)Cn2c(cc3sccc32)C(=O)N1Cc1ccccc1Cl (stereo not given) | 5.36 | -0.817 | 10.8 | 13.7 | 1.95 |
| CC(=O)OC1C(OC(=O)c2ccccc2)C2C(C)(C)CC(=O)CC2(C)C23CCC(C)(C2)C(O)CC13 (stereo not given) | -5.54 | -13.8 | 0.974 | -25.1 | -8.6 |
| Cc1ccc(NC(=O)CCc2nnc3n(CCCOC(C)C)c(=O)c4ccccc4n23)cc1C | -1.72 | 4.98 | 3.69 | 0.612 | -0.405 |
| CCc1ccc(N2C(=O)c3cc(-c4ccc(OC)cc4)nn3CC2(C)C(=O)NCc2ccccc2OC)cc1 (stereo not given) | 3.8 | 4.32 | 3.48 | 3.03 | -1.41 |
| Cc1cc2ncc(C(=O)NCC(C)(C)NCC(=O)N3CCC[C@H]3C#N)cn2n1 | -8.12 | -8.54 | 10.1 | -21.9 | -1.6 |
| C[S+](=O)([O-])N1CC2(CCCN2CC2CCCCC2)Cc2ccccc21 (stereo not given) | -8.21 | -8.19 | -14.5 | -17.8 | -7.79 |
| C[C@H](Nc1cc2c(-c3ccc4c(c3)OCO4)noc2cn1)c1ccccc1 | -8.03 | -21.1 | -5.18 | -33.5 | -82.8 |
| CN1C(=O)c2cc(C(=O)NCc3ccco3)nn2CC1(C)C(=O)NC1CCCC1 (stereo not given) | 9.59 | 0.161 | 6.14 | 10.1 | 3.8 |
